Data: the supplement of paper PMC4967469
Lines with a small IC50 respond at low doses; fits outside the tested doses are given as limits. The AUC spans the tested range (256-fold, ending at the top dose) of the same fit: 1 means no effect, lower means more sensitive. An entry number marks a drug with two screens in the source, which often give different values.

Compound: CS(=O)(=O)N1CCN(Cc2cc3nc(-c4cccc5[nH]ncc45)nc(N4CCOCC4)c3s2)CC1 [GDC0941]
Assay: Viability of human cancer cell lines after 72 h of drug (GDSC screen)
Settings: screen: GDSC drug entry 1058
Experimental: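 Human cancer cell lines in 384-well plates, medium with 10% serum, drug for 72 h over a 256-fold dose range (nine 2-fold or five 4-fold steps up to the top dose). Adherent lines were fixed and stained with the nucleic acid dye Syto60, suspension lines read with resazurin; signal relative to control wells, capped at 0 and 100%. One two-parameter sigmoid per drug and line, fitted in a mixed model over all curves with the slope shared within a line.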

Row | Cell Line | AUC | IC50 [nM]
1 | SW756 (cervix, adherent, top dose 4 µM) | 0.879 | > 4000
2 | HuO9 (osteosarcoma, adherent, top dose 4 µM) | 0.485 | 227
3 | PA-TU-8902 (pancreas, adherent, top dose 4 µM) | 0.874 | > 4000
4 | COR-L88 (small cell lung carcinoma, adherent, top dose 4 µM) | 0.97 | > 4000
5 | SK-GT-4 (oesophagus, adherent, top dose 4 µM) | 0.644 | 693
6 | NCC010 (kidney, adherent, top dose 4 µM) | 0.831 | 2790
7 | SNU-407 (large intestine, adherent, top dose 4 µM) | 0.743 | 1420
8 | NB7 (neuroblastoma, adherent, top dose 4 µM) | 0.95 | > 4000
9 | Hs746T (stomach, adherent, top dose 4 µM) | 0.821 | 3450
10 | MFE-296 (endometrium, adherent, top dose 4 µM) | 0.942 | > 4000
11 | NCI-N87 (stomach, adherent, top dose 4 µM) | 0.767 | 2180
12 | ES4 (Ewing sarcoma, adherent, top dose 4 µM) | 0.64 | 647
13 | SK-CO-1 (large intestine, adherent, top dose 4 µM) | 0.782 | 1570
14 | EW-24 (Ewing sarcoma, semi-adherent, top dose 4 µM) | 0.943 | > 4000
15 | SK-N-SH (neuroblastoma, adherent, top dose 4 µM) | 0.834 | 2560
16 | OCUM-1 (stomach, adherent, top dose 4 µM) | 0.842 | 3260
17 | TE-15 (oesophagus, suspension, top dose 4 µM) | 0.621 | 563
18 | SK-MEL-31 (melanoma, adherent, top dose 4 µM) | 0.915 | > 4000
19 | SJRH30 (rhabdomyosarcoma, adherent, top dose 4 µM) | 0.886 | > 4000
20 | CGTH-W-1 (thyroid, adherent, top dose 4 µM) | 0.793 | 1810
21 | SKG-IIIa (cervix, adherent, top dose 4 µM) | 0.78 | 2260

Row | Cell Line | AUC | IC50 [nM]
22 | DEL (lymphoid neoplasm, suspension, top dose 4 µM) | 0.994 | > 4000
23 | NCI-H2081 (small cell lung carcinoma, suspension, top dose 4 µM) | 0.958 | > 4000
24 | DK-MG (glioma, adherent, top dose 4 µM) | 0.821 | > 4000
25 | OV-56 (ovary, adherent, top dose 4 µM) | 0.909 | > 4000
26 | NCI-H510A (small cell lung carcinoma, semi-adherent, top dose 4 µM) | 0.956 | > 4000
27 | KMOE-2 (acute myeloid leukaemia, suspension, top dose 4 µM) | 0.723 | 985
28 | SCC-15 (head and neck, adherent, top dose 4 µM) | 0.962 | > 4000
29 | SR (lymphoid neoplasm, suspension, top dose 4 µM) | 0.683 | 763
30 | SNU-C1 (large intestine, suspension, top dose 4 µM) | 0.626 | 653
31 | DU-145 (prostate, adherent, top dose 2 µM) | 0.983 | > 2000
32 | NCI-H2347 (lung adenocarcinoma, adherent, top dose 4 µM) | 0.928 | > 4000
33 | MPP-89 (mesothelioma, adherent, top dose 4 µM) | 0.79 | 2400
34 | LXF-289 (lung adenocarcinoma, adherent, top dose 4 µM) | 0.65 | 646
35 | OE21 (oesophagus, adherent, top dose 4 µM) | 0.685 | 1010
36 | SU-DHL-10 (B-cell lymphoma, suspension, top dose 4 µM) | 0.583 | 397
37 | RCC-ER (kidney, adherent, top dose 4 µM) | 0.751 | 1450
38 | SNU-182 (liver, adherent, top dose 4 µM) | 0.789 | 1860
39 | ATN-1 (T-cell lymphoblastic leukaemia, suspension, top dose 4 µM) | 0.489 | 234
40 | GOTO (neuroblastoma, adherent, top dose 4 µM) | 0.951 | > 4000
41 | 201T (lung adenocarcinoma, adherent, top dose 4 µM) | 0.666 | 819
42 | TE-11 (oesophagus, adherent, top dose 4 µM) | 0.897 | > 4000

Row | Cell Line | AUC | IC50 [nM]
43 | NEC8 (testis, adherent, top dose 4 µM) | 0.648 | 599
44 | HO-1-u-1 (head and neck, adherent, top dose 4 µM) | 0.825 | 2270
45 | 451Lu (melanoma, adherent, top dose 4 µM) | 0.923 | > 4000
46 | HGC-27 (stomach, adherent, top dose 4 µM) | 0.524 | 287
47 | OVCAR-3 (ovary, adherent, top dose 4 µM) | 0.945 | > 4000
48 | SiHa (cervix, adherent, top dose 4 µM) | 0.953 | > 4000
49 | RL (B-cell lymphoma, suspension, top dose 4 µM) | 0.961 | > 4000
50 | SW1710 (bladder, adherent, top dose 4 µM) | 0.706 | 969
51 | COLO-800 (melanoma, adherent, top dose 4 µM) | 0.842 | 2690
52 | NCI-H82 (small cell lung carcinoma, suspension, top dose 4 µM) | 0.743 | 1180
53 | HC-1 (hairy cell leukaemia, suspension, top dose 4 µM) | 0.925 | > 4000
54 | NCI-H69 (small cell lung carcinoma, suspension, top dose 4 µM) | 0.715 | 1100
55 | TE-6 (oesophagus, adherent, top dose 4 µM) | 0.854 | > 4000
56 | ROS-50 (B-cell leukaemia, suspension, top dose 4 µM) | 0.976 | > 4000
57 | NCI-H1568 (lung adenocarcinoma, adherent, top dose 4 µM) | 0.872 | > 4000
58 | 697 (lymphoblastic leukaemia, suspension, top dose 4 µM) | 0.399 | 140
59 | SISO (cervix, adherent, top dose 4 µM) | 0.805 | 1920
60 | EFO-21 (ovary, adherent, top dose 4 µM) | 0.904 | > 4000
61 | YT (lymphoid neoplasm, suspension, top dose 4 µM) | 0.242 | 52.1
